# This is one part of the list.
# B1: HA-11100 (Pseudomonas aeruginosa), Q02G51_PSEAB (protein)
# chain: QFNPNEIKISQQGKTTLIDQSTQRAIINWKGFDVSADEAVRFNQPGVTSSTLNRVTAGQESVIAGRISAPGQVIIYNSNGVVFSGSAKVDVGSLITTTANISDEHFRQGKLIFDQPGNPDARIVNDGSISVAEKGLAAFVAPSVANNGVINARLGTVAMAAGNAATIDLYG
# Experiments:
# Assay in all cases: glycan array binding signal (z-score within array); higher = stronger binding
# Settings in all cases: glycan notation: IUPAC condensed, linker removed
# Gal(a1-3)Gal = target: Gal(a1-3)Gal
# Outline: (§1)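 Arrays were curated from the Consortium for Functional Glycomics database, 3228 in total, and kept only where the protein sequence was available. Binding is expressed as a within-array Z-score. This score was averaged across arrays of the same protein sequence at different concentrations or buffers and across linkers, and negative values can be read as non-binding.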
# Gal(a1-3)Gal(b1-3)GlcNAc = target: Gal(a1-3)Gal(b1-3)GlcNAc
# Outline: as §1
# [1] = target: Gal(a1-3)Gal(b1-3)GlcNAc(b1-2)Man
# Outline: as §1
# [2] = target: Gal(a1-3)Gal(b1-3)GlcNAc(b1-2)Man(a1-3)[Gal(a1-3)Gal(b1-3)GlcNAc(b1-2)Man(a1-6)]Man(b1-4)GlcNAc(b1-4)GlcNAc
# Outline: as §1
# [3] = target: Gal(a1-3)Gal(b1-3)GlcNAc(b1-3)GalNAc
# Outline: as §1
# [4] = target: Gal(a1-3)Gal(b1-3)GlcNAc(b1-6)GalNAc
# Outline: as §1
# [5] = target: Gal(a1-3)Gal(b1-3)[Fuc(a1-4)]GlcNAc(b1-2)Man(a1-3)[Gal(a1-3)Gal(b1-3)[Fuc(a1-4)]GlcNAc(b1-2)Man(a1-6)]Man(b1-4)GlcNAc(b1-4)GlcNAc
# Outline: as §1
# Gal(a1-3)Gal(b1-4)Glc = target: Gal(a1-3)Gal(b1-4)Glc
# Outline: as §1
# Gal(a1-3)Gal(b1-4)GlcNAc = target: Gal(a1-3)Gal(b1-4)GlcNAc
# Outline: as §1
# [6] = target: Gal(a1-3)Gal(b1-4)GlcNAc(b1-2)Man
# Outline: as §1
# [7] = target: Gal(a1-3)Gal(b1-4)GlcNAc(b1-2)Man(a1-3)[Gal(a1-3)Gal(b1-4)GlcNAc(b1-2)Man(a1-6)]Man(b1-4)GlcNAc(b1-4)GlcNAc
# Outline: as §1
# [8] = target: Gal(a1-3)Gal(b1-4)GlcNAc(b1-3)GalNAc
# Outline: as §1
# [9] = target: Gal(a1-3)Gal(b1-4)GlcNAc(b1-6)GalNAc
# Outline: as §1
# [10] = target: Gal(a1-3)Gal(b1-4)[Fuc(a1-3)]GlcNAc
# Outline: as §1
# [11] = target: Gal(a1-3)Gal(b1-4)[Fuc(a1-3)]GlcNAc(b1-2)Man(a1-3)[Gal(a1-3)Gal(b1-4)[Fuc(a1-3)]GlcNAc(b1-2)Man(a1-6)]Man(b1-4)GlcNAc(b1-4)GlcNAc
# Outline: as §1
# Gal(a1-3)GalNAc = target: Gal(a1-3)GalNAc
# Outline: as §1
# [12] = target: Gal(a1-3)[Gal(a1-4)]Gal(b1-4)GlcNAc
# Outline: as §1
# [13] = target: Gal(a1-4)Gal(b1-3)GlcNAc(b1-2)Man(a1-3)[Gal(a1-4)Gal(b1-3)GlcNAc(b1-2)Man(a1-6)]Man(b1-4)GlcNAc(b1-4)GlcNAc
# Outline: as §1
# Gal(a1-4)Gal(b1-4)Glc = target: Gal(a1-4)Gal(b1-4)Glc
# Outline: as §1
# Gal(a1-4)Gal(b1-4)GlcNAc = target: Gal(a1-4)Gal(b1-4)GlcNAc
# Outline: as §1
# [14] = target: Gal(a1-4)Gal(b1-4)GlcNAc(b1-2)Man(a1-3)[Gal(a1-4)Gal(b1-4)GlcNAc(b1-2)Man(a1-6)]Man(b1-4)GlcNAc(b1-4)GlcNAc
# Outline: as §1
# [15] = target: Gal(a1-4)Gal(b1-4)GlcNAc(b1-3)Gal(b1-4)Glc
# Outline: as §1
# Gal(a1-4)GlcNAc = target: Gal(a1-4)GlcNAc
# Outline: as §1
# Gal(a1-6)Glc = target: Gal(a1-6)Glc
# Outline: as §1
# Gal(b1-2)Gal = target: Gal(b1-2)Gal
# Outline: as §1
# Gal(b1-3)Gal = target: Gal(b1-3)Gal
# Outline: as §1
# Gal(b1-3)Gal(b1-4)GlcNAc = target: Gal(b1-3)Gal(b1-4)GlcNAc
# Outline: as §1
# Gal(b1-3)GalNAc = target: Gal(b1-3)GalNAc
# Outline: as §1
# [16] = target: Gal(b1-3)GalNAc(a1-3)[Fuc(a1-2)]Gal(b1-4)Glc
# Outline: as §1
# [17] = target: Gal(b1-3)GalNAc(a1-3)[Fuc(a1-2)]Gal(b1-4)GlcNAc
# Outline: as §1
# Gal(b1-3)GalNAc(b1-3)Gal = target: Gal(b1-3)GalNAc(b1-3)Gal
# Outline: as §1
# [18] = target: Gal(b1-3)GalNAc(b1-3)Gal(a1-4)Gal(b1-4)Glc
# Outline: as §1
# [19] = target: Gal(b1-3)GalNAc(b1-4)Gal(b1-4)Glc
# Outline: as §1
# [20] = target: Gal(b1-3)GalNAc(b1-4)[Neu5Ac(a2-3)]Gal(b1-4)Glc
# Outline: as §1
# Gal(b1-3)GlcNAc = target: Gal(b1-3)GlcNAc
# Outline: as §1
# [21] = target: Gal(b1-3)GlcNAc(a1-3)Gal(b1-4)GlcNAc
# Outline: as §1
# [22] = target: Gal(b1-3)GlcNAc(a1-6)Gal(b1-4)GlcNAc
# Outline: as §1
# Gal(b1-3)GlcNAc(b1-2)Man = target: Gal(b1-3)GlcNAc(b1-2)Man
# Outline: as §1
binder,measurement,setting,value
B1,glycan array binding signal (z-score),Gal(a1-3)Gal,-0.507
same,glycan array binding signal (z-score),Gal(a1-3)Gal(b1-3)GlcNAc,-0.446
same,glycan array binding signal (z-score),[1],-0.356
same,glycan array binding signal (z-score),[2],2.34
same,glycan array binding signal (z-score),[3],0.037
same,glycan array binding signal (z-score),[4],-0.463
same,glycan array binding signal (z-score),[5],1.87
same,glycan array binding signal (z-score),Gal(a1-3)Gal(b1-4)Glc,0.332
same,glycan array binding signal (z-score),Gal(a1-3)Gal(b1-4)GlcNAc,-0.313
same,glycan array binding signal (z-score),[6],-0.276
same,glycan array binding signal (z-score),[7],3.53
same,glycan array binding signal (z-score),[8],-0.163
same,glycan array binding signal (z-score),[9],0.19
same,glycan array binding signal (z-score),[10],-0.245
same,glycan array binding signal (z-score),[11],0.608
same,glycan array binding signal (z-score),Gal(a1-3)GalNAc,-0.213
same,glycan array binding signal (z-score),[12],0.081
same,glycan array binding signal (z-score),[13],3.02
same,glycan array binding signal (z-score),Gal(a1-4)Gal(b1-4)Glc,-0.019
same,glycan array binding signal (z-score),Gal(a1-4)Gal(b1-4)GlcNAc,0.223
same,glycan array binding signal (z-score),[14],2.62
same,glycan array binding signal (z-score),[15],-0.459
same,glycan array binding signal (z-score),Gal(a1-4)GlcNAc,0.177
same,glycan array binding signal (z-score),Gal(a1-6)Glc,0.121
same,glycan array binding signal (z-score),Gal(b1-2)Gal,-0.225
same,glycan array binding signal (z-score),Gal(b1-3)Gal,-0.091
same,glycan array binding signal (z-score),Gal(b1-3)Gal(b1-4)GlcNAc,-0.039
same,glycan array binding signal (z-score),Gal(b1-3)GalNAc,-0.172
same,glycan array binding signal (z-score),[16],-0.071
same,glycan array binding signal (z-score),[17],-0.027
same,glycan array binding signal (z-score),Gal(b1-3)GalNAc(b1-3)Gal,-0.426
same,glycan array binding signal (z-score),[18],0.18
same,glycan array binding signal (z-score),[19],-0.029
same,glycan array binding signal (z-score),[20],-0.426
same,glycan array binding signal (z-score),Gal(b1-3)GlcNAc,-0.239
same,glycan array binding signal (z-score),[21],-0.369
same,glycan array binding signal (z-score),[22],-0.297
same,glycan array binding signal (z-score),Gal(b1-3)GlcNAc(b1-2)Man,1.26
